The full ranking holds about 33,000 sequences; the median of “E-score (-0.5 to 0.5)” is about -0.011, and the highest 2% start at about 0.28. This is one part of the list.
target: T1, Gcr1 (UniProt P07261); assay: PBM E-score (8-mer binding enrichment) (E-score (-0.5 to 0.5)); higher = stronger / more preferred TF binding; most listed sequences are background and not binding sites; conditions: protein concentration: 100 nM; construct: GST-full length
T1 sequence: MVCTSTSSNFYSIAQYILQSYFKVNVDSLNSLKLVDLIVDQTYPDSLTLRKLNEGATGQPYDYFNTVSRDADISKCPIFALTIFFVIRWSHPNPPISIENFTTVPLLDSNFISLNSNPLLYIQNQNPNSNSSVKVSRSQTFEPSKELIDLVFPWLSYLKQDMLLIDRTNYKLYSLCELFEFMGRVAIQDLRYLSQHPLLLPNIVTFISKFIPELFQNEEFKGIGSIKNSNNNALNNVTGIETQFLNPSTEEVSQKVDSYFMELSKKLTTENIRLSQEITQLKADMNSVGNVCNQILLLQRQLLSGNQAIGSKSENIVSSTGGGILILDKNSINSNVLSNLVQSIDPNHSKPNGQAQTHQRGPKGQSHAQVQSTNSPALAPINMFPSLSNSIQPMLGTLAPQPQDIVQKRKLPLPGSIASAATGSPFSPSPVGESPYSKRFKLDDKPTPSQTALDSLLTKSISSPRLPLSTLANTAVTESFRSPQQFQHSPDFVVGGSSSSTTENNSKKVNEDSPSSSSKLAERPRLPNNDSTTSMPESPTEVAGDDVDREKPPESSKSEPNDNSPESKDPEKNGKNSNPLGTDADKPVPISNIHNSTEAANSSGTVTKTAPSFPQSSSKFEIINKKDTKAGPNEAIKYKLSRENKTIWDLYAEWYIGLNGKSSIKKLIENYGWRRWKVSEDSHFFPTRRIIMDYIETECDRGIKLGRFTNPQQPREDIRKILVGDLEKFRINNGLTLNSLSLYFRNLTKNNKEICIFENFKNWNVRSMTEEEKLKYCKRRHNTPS
Outline: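 Using PURExpress in vitro transcription/translation, GST-tagged yeast transcription factors were made in full-length or DNA-binding-domain form. These were applied at about 100-200 nM to double-stranded universal all-10-mer Agilent arrays, and bound protein was detected with fluorescent anti-GST. Scans were normalised with masliner before the Universal PBM Analysis Suite assigned E-scores to ungapped eight-base words pooled with their reverse complements.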

Going from ACAACCAC to CCACCGGA, the “PBM E-score” value rises from 0.119 to 0.153.

Going from GCGGCGAC to AGTTGGTG, the “PBM E-score” value falls from 0.148 to 0.0768.

First: CCTCATAA
Second: ATGGATTA
The “PBM E-score” value of the first is lower: 0.0248 for the first, 0.0376 for the second.

First: ACATGGCT
Second: ATCGCCCA
The “PBM E-score” value of the first is lower: -0.126 for the first, -0.0335 for the second.

Going from CTGACGTC to AAACGCTC, the “PBM E-score” value rises from -0.0827 to -0.0758.

Going from CGTAGCAC to TCGATGCA, the “PBM E-score” value falls from 0.084 to 0.0074.

Going from AATTGGGT to GAGAGATC, the “PBM E-score” value falls from 0.138 to -0.353.

First: AAATCGAC
Second: TGATACCA
The “PBM E-score” value of the first is lower: -0.16 for the first, 0.107 for the second.

Compared with AGACAAGC, CTTCGGAC is higher in “PBM E-score” value: -0.117 for the first, 0.0401 for the second.

Going from CGACCCAG to CTTCTCAC, the “PBM E-score” value rises from -0.169 to 0.00216.

Going from ACAACGAT to CCCTCGGA, the “PBM E-score” value falls from -0.134 to -0.221.

Going from CAGGCCGA to TCCGTAAA, the “PBM E-score” value rises from -0.0271 to 0.149.

Compared with GTAGAGCA, ACACGACA is higher in “PBM E-score” value: -0.00374 for the first, 0.0787 for the second.

Going from AGCCGGCG to AGCGCTCG, the “PBM E-score” value falls from -0.046 to -0.0704.

First: ACTCTGGG
Second: CCTCGCAC
The “PBM E-score” value of the first is higher: 0.16 for the first, -0.083 for the second.

Compared with TCTGACCA, CTTAACCC is lower in “PBM E-score” value: -0.0141 for the first, -0.254 for the second.

Compared with ACTTGCAG, CGCCAGTC is higher in “PBM E-score” value: -0.101 for the first, -0.0131 for the second.

First: ATAAGCTA
Second: CGTAATTC
The “PBM E-score” value of the first is lower: -0.078 for the first, 0.182 for the second.

First: AACTTATG
Second: ATTGCGTC
The “PBM E-score” value of the first is higher: 0.0783 for the first, 0.0181 for the second.

Compared with CACCCAAC, ACGACGAA is lower in “PBM E-score” value: -0.0172 for the first, -0.12 for the second.

Going from ACTCTACT to CCCCCAGA, the “PBM E-score” value falls from 0.085 to 0.069.

First: AGAGAAGA
Second: TTGAAAAA
The “PBM E-score” value of the first is higher: 0.0866 for the first, 0.0707 for the second.

Compared with AAAGTCTT, GAAATATC is higher in “PBM E-score” value: -0.247 for the first, -0.0882 for the second.

First: AGTATGTC
Second: GCCCAAAC
The “PBM E-score” value of the first is lower: 0.0226 for the first, 0.111 for the second.

First: AAGCTTGA
Second: AAGTCAGA
The “PBM E-score” value of the first is higher: -0.0122 for the first, -0.054 for the second.

First: CACGGTCA
Second: ACCTACTC
The “PBM E-score” value of the first is lower: -0.172 for the first, -0.163 for the second.

Going from AGCCGGCC to AAAGAGAA, the “PBM E-score” value rises from -0.115 to 0.022.

Going from CCCTTTCC to ACCAACAA, the “PBM E-score” value rises from -0.201 to 0.027.

Going from CCTCAAGA to AGGTAACT, the “PBM E-score” value falls from 0.0666 to -0.0112.

Going from CCGTGATC to ACCTTGCA, the “PBM E-score” value falls from -0.0521 to -0.218.

First: ACCAGCGG
Second: ACTTTCCC
The “PBM E-score” value of the first is higher: 0.0166 for the first, 0.00875 for the second.

Going from CTTGTTTA to CAATCTTA, the “PBM E-score” value falls from 0.139 to -0.0186.

Compared with AACGCGGT, GTATGCCA is higher in “PBM E-score” value: -0.107 for the first, -0.0655 for the second.

First: ATGGCCAG
Second: AGCGAAAA
The “PBM E-score” value of the first is higher: -0.12 for the first, -0.148 for the second.

Compared with TCAACGAA, GTCCACAA is higher in “PBM E-score” value: 0.0235 for the first, 0.224 for the second.

Going from GCACACAC to ACCTAATG, the “PBM E-score” value rises from -0.0257 to 0.092.

First: CCGCCTAC
Second: CCAAGAAC
The “PBM E-score” value of the first is higher: 0.0338 for the first, 0.00226 for the second.

First: AGTTCAAT
Second: AAGTAATA
The “PBM E-score” value of the first is lower: 0.0306 for the first, 0.113 for the second.

Going from AGAGGATC to TCCTGAGA, the “PBM E-score” value falls from 0.024 to -0.0349.

First: TAATCGTA
Second: CCCAAAAA
The “PBM E-score” value of the first is lower: -0.0645 for the first, 0.212 for the second.

Compared with GGTCGAGA, ATGTCGAG is higher in “PBM E-score” value: -0.0372 for the first, 0.0795 for the second.

Compared with ACCACAAG, CGGTCCGC is lower in “PBM E-score” value: 0.0711 for the first, -0.233 for the second.

Going from ACGATCCG to ATTGCGTG, the “PBM E-score” value rises from -0.0917 to 0.0862.

First: ACTACAAA
Second: TTAGCTAA
The “PBM E-score” value of the first is higher: -0.0263 for the first, -0.0653 for the second.

Going from ATCGGATG to GCGTACAC, the “PBM E-score” value falls from 0.105 to -0.103.

Going from AACTGACT to CACCTACA, the “PBM E-score” value rises from -0.194 to 0.12.

First: ATTAGATC
Second: GCAAGCTA
The “PBM E-score” value of the first is higher: -0.0406 for the first, -0.183 for the second.

Compared with ATCTTTAC, CAATACTG is lower in “PBM E-score” value: 0.062 for the first, 0.00946 for the second.

Compared with GATTCTGA, CTTGCAGC is lower in “PBM E-score” value: 0.0548 for the first, -0.0484 for the second.

Going from AACGTAAG to ATTGCTCC, the “PBM E-score” value falls from -0.143 to -0.155.

Compared with CAGTCCGG, CACAACAC is lower in “PBM E-score” value: -0.0133 for the first, -0.0602 for the second.

Going from AGAATCCC to CTCGGGGC, the “PBM E-score” value falls from 0.321 to -0.101.

Compared with CCCTTTTC, CACAGTAC is higher in “PBM E-score” value: -0.107 for the first, 0.00655 for the second.

First: CTCCATTC
Second: AAATCATT
The “PBM E-score” value of the first is lower: -0.0832 for the first, -0.0184 for the second.

First: CTACGGTC
Second: ACGGGCAT
The “PBM E-score” value of the first is lower: -0.119 for the first, -0.0355 for the second.

Going from GAACGCTA to GCAGGGAC, the “PBM E-score” value falls from -0.111 to -0.299.

Compared with GCTAGAGC, GGGCAAAA is higher in “PBM E-score” value: -0.135 for the first, -0.0849 for the second.

Going from CATAGGCG to TACACCTA, the “PBM E-score” value falls from 0.0505 to -0.0458.

Going from CCTTCCAA to GTATAGCA, the “PBM E-score” value rises from -0.0431 to 0.0487.

Compared with GCATATAC, GTTCAGTA is lower in “PBM E-score” value: -0.0524 for the first, -0.172 for the second.

Compared with ACGCGGTA, ATGCCATC is lower in “PBM E-score” value: -0.0567 for the first, -0.134 for the second.

First: AACCCGGA
Second: ACCTAGCC
The “PBM E-score” value of the first is higher: 0.0755 for the first, -0.234 for the second.

First: AGGCTGTG
Second: CCGGTGCC
The “PBM E-score” value of the first is higher: -0.182 for the first, -0.187 for the second.

Going from CATTCGCC to AAAGATTT, the “PBM E-score” value rises from 0.0285 to 0.0719.

First: CCTGACCG
Second: CTCGGATC
The “PBM E-score” value of the first is lower: -0.182 for the first, 0.0215 for the second.

Compared with CAACTCTG, AACAGACC is lower in “PBM E-score” value: 0.075 for the first, -0.179 for the second.

Going from CGTTATCC to CTTCGCGA, the “PBM E-score” value rises from -0.107 to 0.115.

First: CGGTCAGA
Second: CGCGTAAC
The “PBM E-score” value of the first is lower: -0.24 for the first, -0.11 for the second.

First: ATTAAAGC
Second: TCACTCCA
The “PBM E-score” value of the first is lower: -0.0613 for the first, 0.0145 for the second.

First: CAGCGCTC
Second: ATCGCCGA
The “PBM E-score” value of the first is lower: -0.125 for the first, -0.0388 for the second.

First: AGTCCCCA
Second: TCGGATAA
The “PBM E-score” value of the first is lower: -0.047 for the first, 0.0743 for the second.

First: AAAAGGGT
Second: TCTTATAA
The “PBM E-score” value of the first is lower: -0.019 for the first, 0.142 for the second.

Compared with AGGCCATC, ATCAGCCA is higher in “PBM E-score” value: -0.218 for the first, 0.00298 for the second.

Going from TACGGGGA to CGTTATAA, the “PBM E-score” value falls from 0.115 to 0.0645.

Going from AGCAGTTC to AAATGGAC, the “PBM E-score” value rises from -0.0649 to 0.01.

First: TCAGGTAA
Second: GTACGGAA
The “PBM E-score” value of the first is lower: -0.152 for the first, 0.0818 for the second.

First: CTAATGTC
Second: ATATCCGC
The “PBM E-score” value of the first is higher: 0.169 for the first, 0.0368 for the second.

Compared with AGTTGTTC, CAAAAAGG is higher in “PBM E-score” value: 0.00713 for the first, 0.217 for the second.

Compared with AGACTGTG, CTCCTACC is higher in “PBM E-score” value: -0.222 for the first, -0.054 for the second.

Compared with TACCCGTA, CAGCCTGG is higher in “PBM E-score” value: -0.012 for the first, 0.0106 for the second.

Compared with ATATCGGA, CATTCGTC is lower in “PBM E-score” value: 0.0735 for the first, -0.0621 for the second.

First: GGTTGGCA
Second: CTAAGTCA
The “PBM E-score” value of the first is lower: -0.109 for the first, -0.028 for the second.

Compared with CCCAACTA, CCCGAGAG is lower in “PBM E-score” value: 0.144 for the first, -0.0648 for the second.

Compared with CTACGTGA, GCGGGCAA is lower in “PBM E-score” value: -0.0739 for the first, -0.146 for the second.

Going from ATAGCTGC to AATTCGCC, the “PBM E-score” value falls from 0.285 to 0.00647.

First: TAACCATA
Second: AATCTAAC
The “PBM E-score” value of the first is higher: 0.0179 for the first, 0.0133 for the second.

— the supplement of paper PMC3334620
